Laboratory results published in PubChem BioAssay AID1240 (Sanford-Burnham Center for Chemical Genomics, 2008).
Among all 50,000 compounds or so, about 800 (1.6%) showed an effect of 50% or more. The list shows a part of the results.

These compounds were tested against Bcl-2-like protein 10 (Homo sapiens) (UniProt Q9HD36) (assay: TR3 peptide-Bcl-B binding displacers, biochemical primary FP assay, phenotype converters (AID 1240;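 note: 0% = Bcl-B with tracer peptide and DMSO and 100% = tracer peptide lacking Bcl-B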)). Conditions: GST-Bcl-B / FITC-TR3 peptide fluorescence polarization; stronger effect = higher value; compound at 3.75 mg/L.
UniProt Q9HD36, sequence (Q9HD36 whole entry, looked up): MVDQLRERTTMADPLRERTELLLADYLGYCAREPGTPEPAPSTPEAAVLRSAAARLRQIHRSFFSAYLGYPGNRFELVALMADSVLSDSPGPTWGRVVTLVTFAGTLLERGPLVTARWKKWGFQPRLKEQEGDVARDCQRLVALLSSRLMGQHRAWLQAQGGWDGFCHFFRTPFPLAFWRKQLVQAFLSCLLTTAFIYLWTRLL

In order of falling displacement:
1. CC1(C)NN(c2ccccc2)C(=S)N1CN1CCOCC1  55.9%
2. CCN(CC)c1ccc(NS(=O)(=O)c2cc(Cl)ccc2Cl)cc1  23%
3. COc1ccc(OC)c(/C=C/C(=O)Oc2cc(C)cc(C)c2)c1  11.8%
4. O=[N+]([O-])c1ccc(OCCCCCN2CCCCC2)cc1  11.6%
5. CCCN1C(=O)c2ccccc2NC1c1ccc(Cl)cc1Cl (stereo unspecified)  9.1%
6. CCOc1ccc(C(=O)Nc2cccc(-c3nc4cc(C)c(C)cc4o3)c2)cc1  9.1%
7. CCOc1ccc2oc(C)c(C(=O)O)c2c1  8.8%
8. O=C(CN(CCc1ccccc1)S(=O)(=O)c1ccc(Br)cc1)NCc1ccccn1  8.5%
9. Cc1ccc(-c2nc3ccccc3s2)cc1NC(=O)COc1ccccc1[N+](=O)[O-]  8.4%
10. CCOC(=O)COc1ccc(/C=C(\C#N)c2nc3ccccc3[nH]2)cc1OC  8.1%
11. Cc1ccc(OCC(=O)Nc2cccc(C(F)(F)F)c2)c(C)c1  7.3%
12. C/C(=N\NC(=O)CNC(=O)COc1ccccc1)c1ccccc1  6.3%
13. CC(=O)c1c(C)n(O)c2ccc(Cl)cc2c1=O  5.6%
14. COc1ccc(CCNC(=O)C(=O)Nc2ccc(Cl)c(Cl)c2)cc1OC  5.5%
15. O=C(NCc1ccco1)c1ccc(-c2ccc(Cl)cc2Cl)o1  5.2%
16. CCOC(=O)c1ccc(NC(=O)CN(c2ccc(OC)cc2OC)S(C)(=O)=O)cc1  4.9%
17. CCN(CC)S(=O)(=O)c1ccc2c(c1)C(=Cc1ccccc1)c1cc(S(=O)(=O)N(CC)CC)ccc1-2  3.4%
18. COc1cc(C(=O)NN=C2CCCCCC2)cc(OC)c1OC  2.4%
19. CCOC(=O)c1c(NC(C)=O)sc(C)c1-c1ccccc1  -1.3%
20. Oc1ccc(/C=N/Nc2nncc(-c3ccccc3)n2)c(O)c1  -1.6%
21. O=C(O)CCC(C(=O)O)n1c(O)c(C2=c3ccccc3=NC2=O)sc1=S (stereo unspecified)  -2%
22. CN(C)c1ccc(C(NC(=O)Cc2ccccc2)c2c(O)ccc3ccccc23)cc1 (stereo unspecified)  -2.1%
23. COc1ccc2oc(=O)c(C(=O)NC3CCCCC3)cc2c1  -2.3%
24. O=C(COc1cccc(Cl)c1)NCCc1ccccc1  -3.2%
25. CC(=O)C1=C(O)C(=O)N(c2ccccn2)C1c1cccnc1 (stereo unspecified)  -4.1%
26. O=C(CSc1nnnn1-c1ccccc1)CSc1nnnn1-c1ccccc1  -5.4%
27. CCOc1cc(/C=C2/NC(=S)NC2=O)cc(Cl)c1OCC  -5.8%
28. Cc1ccc(S(=O)(=O)NCCC(=O)NC(C)(C)C)cc1  -6.9%
29. CCN(CC)S(=O)(=O)c1cccc(C(=O)Nc2ccc(Cl)cc2)c1  -12%
30. COc1ccc(CNC(=O)c2ccc(C)c([N+](=O)[O-])c2)cc1  -17.8%
31. O=C(N/N=C/C(Br)=C/c1ccccc1)C(O)(c1ccccc1)c1ccccc1  -18.7%
